The full ranking holds about 110,000 compounds; the median of “z-score” is about -0.1, and the highest 2% start at about 2. The list shows a part of the results. Calls of active or inactive are those of the source.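 The calls were made as follows: active = z-score in the third read window above 3 or below -3; inactive = the rest.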
Biological target: Metabotropic glutamate receptor 8 (Rattus norvegicus) (UniProt P70579)
Assay: rat mGluR8 modulators via GIRK flux, primary screen, cell-based, thallium flux, HTS (AID 488969)
Settings: HEK293 rat mGluR8, GIRK (G protein-gated inwardly rectifying potassium channel) thallium flux, FluoZin2; at 10 µM; stronger effect = higher value; submaximal glutamate (EC20) added with thallium

Sequence of UniProt P70579 (P70579 whole entry, looked up): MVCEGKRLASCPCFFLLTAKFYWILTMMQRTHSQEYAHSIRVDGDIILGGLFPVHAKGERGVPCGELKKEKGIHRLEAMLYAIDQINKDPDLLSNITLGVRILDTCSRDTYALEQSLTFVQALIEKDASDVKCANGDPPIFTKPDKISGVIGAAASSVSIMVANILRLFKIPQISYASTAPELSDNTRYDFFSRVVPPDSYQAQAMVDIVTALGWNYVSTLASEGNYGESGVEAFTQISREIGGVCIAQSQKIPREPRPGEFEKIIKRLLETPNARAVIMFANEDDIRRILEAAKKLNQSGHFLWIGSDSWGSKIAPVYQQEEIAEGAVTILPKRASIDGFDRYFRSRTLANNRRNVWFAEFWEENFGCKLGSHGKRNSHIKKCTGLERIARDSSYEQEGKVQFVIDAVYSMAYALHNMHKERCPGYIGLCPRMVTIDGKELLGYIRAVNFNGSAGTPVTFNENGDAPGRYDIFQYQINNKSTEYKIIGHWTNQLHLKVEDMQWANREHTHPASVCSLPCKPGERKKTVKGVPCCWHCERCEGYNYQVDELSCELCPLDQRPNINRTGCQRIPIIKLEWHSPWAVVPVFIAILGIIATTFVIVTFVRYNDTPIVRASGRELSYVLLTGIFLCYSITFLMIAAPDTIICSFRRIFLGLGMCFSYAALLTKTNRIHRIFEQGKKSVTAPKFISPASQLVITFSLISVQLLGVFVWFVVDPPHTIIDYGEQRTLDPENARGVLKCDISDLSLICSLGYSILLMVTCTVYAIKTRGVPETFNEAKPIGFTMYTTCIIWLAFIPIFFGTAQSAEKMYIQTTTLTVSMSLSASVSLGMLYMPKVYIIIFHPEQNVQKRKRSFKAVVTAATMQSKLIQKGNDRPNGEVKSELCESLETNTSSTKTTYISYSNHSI

First: CC(C)OC(=O)NCCOC(=O)Nc1ccc(Cl)c(Cl)c1
Second: CC(C)OC(=O)CSc1nc2ccccc2s1
The z-score of the first is higher: -0.143 for the first, -0.625 for the second.

First: COc1ccccc1NC(=O)N1CCCC1C(=O)NCc1ccccc1F (stereo unspecified)
Second: CCOc1ccc(NC(=O)CN2CC(c3ccccc3)CC2=O)cc1 (stereo unspecified)
The z-score of the first is higher: -0.0827 for the first, -0.314 for the second.

Compared with Cc1cc(C)c(-c2cc(NC(=O)CSc3n[nH]c(N)n3)n(-c3ccccc3)n2)cc1C, Cc1[nH]n(-c2ccccc2)c(=O)c1/C=N/Nc1nncc(-c2ccccc2)n1 is higher in z-score: -0.577 for the first, 0.498 for the second.

Compared with COc1ccc(CC(=O)NC2CCN(CC(=O)Nc3ccc4c(c3)OCCO4)CC2)cc1OC, Nn1cnnc1SCC(=O)Nc1ccc2c(c1)OCCO2 is lower in z-score: -0.282 for the first, -1 for the second.

Compared with O=C1CN(C(=O)C2CC2)c2ccccc2N1, O=C(Cn1nnc(-c2ccccc2NC(=O)C2CC2)n1)NC1CCCCC1 is lower in z-score: -0.128 for the first, -0.659 for the second.

Compared with CNc1nc(NCCOC23CC4CC(CC(C4)C2)C3)nc(OCC(F)(F)F)n1, COc1nc(NCc2ccc(Cl)cc2)nc(OC)n1 is higher in z-score: -0.244 for the first, 0.461 for the second.

First: CCn1c(=O)c(C(=O)Nc2nc3ccccc3[nH]2)c(O)c2ccccc21
Second: CCn1c(CCCNC(=O)c2ccc(F)cc2)nc2ccccc21
The z-score of the first is lower: -0.711 for the first, 0.003 for the second.

Compared with Cc1ccnc2nc(C(=O)Nc3ccc(N4CCOCC4)cc3)nn12, CC(NC(=S)Nc1ccc(Cl)cc1)C(c1ccccc1)N1CCOCC1 (stereo unspecified) is lower in z-score: 0.0976 for the first, 0.0913 for the second.

First: CN1CCN(c2cc(-c3ccccc3)nc3cc(-c4ccc(F)cc4)nn23)CC1
Second: Cc1nn(-c2ccc(F)cc2)c(C)c1NS(=O)(=O)c1ccc2ccccc2c1
The z-score of the first is higher: 0.281 for the first, -2.14 for the second.

First: Cc1ccccc1Cn1c(=O)c2c(nc3n2CCCN3Cc2ccccc2)n(C)c1=O
Second: CCN1CCCn2c1nc1c2c(=O)n(C)c(=O)n1C
The z-score of the first is lower: -0.761 for the first, -0.0457 for the second.

Going from CCOc1ccc(NC(=O)CS(=O)(=O)c2cn(CC)c3ccccc23)cc1 to COc1ccc(NC(=O)Cn2c(-c3ccccc3)cn(-c3ccc(C)cc3)c2=O)cc1, the z-score falls from 0.00496 to -0.126.

Compared with Cc1ccc(OCCNC(=O)/C=C/c2ccccc2)cc1C, CCCCOc1ccc(NC(=O)c2cnc(C)cn2)cc1 is lower in z-score: -0.203 for the first, -0.266 for the second.

First: Cc1cccc(NC(=O)CC(C)(C)C)c1
Second: Cc1cccc(NC(=O)C2=C(O)c3ccccc3N(C)S2(=O)=O)c1
The z-score of the first is higher: 0.727 for the first, -0.316 for the second.

Going from Cc1ccc(CSc2nnc(CC(=O)Nc3ccc(C)cc3)n2C)cc1 to Cc1ccc(S(=O)(=O)N(CCC(=O)O)Cc2ccc(Cl)cc2)cc1, the z-score rises from -0.273 to -0.125.

Compared with C/C(=N/NC(=O)c1cccs1)c1ccc(NC(=O)COc2ccc(Cl)cc2Cl)cc1, COCc1cc(Sc2ccc(Cl)cc2Cl)nc(-c2ccccc2)n1 is higher in z-score: -0.27 for the first, -0.0583 for the second.

Going from COC(=O)C1CC(=O)c2sccc2C1 (stereo unspecified) to COc1ccc(NC(=O)C2CC(=O)NC3=C2C(=O)CC(C)(C)C3)cc1 (stereo unspecified), the z-score rises from -0.259 to 0.113.

Going from N#CN=C(N)c1ccccc1 to N#C/C(=C\c1ccc[nH]1)S(=O)(=O)c1ccccc1, the z-score rises from -1.18 to 0.0633.

Going from CCOCCCNC(=O)c1ccc(N(C)S(=O)(=O)c2ccc(OC)cc2)cc1 to COc1ccc(N(C)S(=O)(=O)c2cccc(C(=O)OC(C(=O)Nc3cc(C)cc(C)c3)c3ccccc3)c2)cc1 (stereo unspecified), the z-score rises from -0.0655 to 0.055.

Going from Cc1cc(C)c(S(=O)(=O)n2ccc3ccccc32)c(C)c1 to CCN(Cc1ccccc1)C(c1cc2ccc(C)cc2[nH]c1=O)c1nnnn1CCOC (stereo unspecified), the z-score rises from -0.0712 to -0.0392.

Going from CC(Sc1nnc(-c2cccs2)n1-c1ccccc1)C(=O)NCc1ccco1 (stereo unspecified) to CCOC(=O)C(C)Sc1cc(CS(=O)(=O)c2ccccc2)nc(-c2ccccc2)n1 (stereo unspecified), the z-score rises from -0.428 to -0.369.

Going from COC(=O)c1ccc(C2C(C#N)=C(N)Oc3cc(C)n(C)c(=O)c32)cc1 (stereo unspecified) to COC(=O)Cc1c(C)nc2nc(-c3ccc(C)cc3)[nH]n2c1=O, the z-score falls from -0.103 to -0.14.

Compared with O=C(c1ccc(N2CCOCC2)nc1)N1CCOCC1, Cc1ccc2[nH]cc(C(=O)CN3CCOCC3)c2c1 is lower in z-score: -0.105 for the first, -0.264 for the second.

Compared with CCN(CC)CCN(CC)Cc1ccccc1Br, CCN(CC)CCN1C(=O)C(=O)/C(=C(/O)c2cnn(-c3ccccc3)c2C)C1c1cccs1 (stereo unspecified) is lower in z-score: 0.52 for the first, -0.117 for the second.

Compared with CCc1nc(N[C@@H](CC(C)C)C(=O)O)c2oc3ccccc3c2n1, CC(C)CNC(=O)CSc1nc2scc(-c3ccccc3)c2c(=O)[nH]1 is higher in z-score: -0.731 for the first, -0.437 for the second.

Going from C=CCn1c(SCC(=O)c2c(N)n(C)c(=O)n(C)c2=O)nc2sc(C)c(C)c2c1=O to CCOC(=O)c1c(NC(=O)CSc2nncn2C)sc(C)c1C, the z-score rises from -0.369 to -0.165.

Going from CCCCOC(=O)c1ccc(NC(=O)C(CCS(C)(=O)=O)NC(C)=O)cc1 (stereo unspecified) to CCCCNS(=O)(=O)c1ccc2nc(SCC(=O)Nc3ccccc3Cl)[nH]c2c1, the z-score rises from -0.251 to 0.0355.

First: CC(NC(=O)C1CCC1)c1ccc(Cl)cc1 (stereo unspecified)
Second: Clc1ccc(-c2nc3cnccn3c2NC2CCCC2)cc1
The z-score of the first is lower: -0.336 for the first, 0.545 for the second.

First: C#CCSc1nnc(-c2ccc(C)cc2)o1
Second: CC(C)c1ccc(-c2c(C#N)c(N)nc3c2CCCCC3)cc1
The z-score of the first is higher: -0.00284 for the first, -0.123 for the second.

Compared with CCCN1C(=O)C2C(C(=O)Nc3cccc(OC)c3)C3C=CC2(O3)C1C(=O)NC1CCCCC1 (stereo unspecified), COc1ccc(CNC(=O)Cn2cnc3c(=O)n(C)c(=O)n(C)c32)cc1 is higher in z-score: -0.461 for the first, -0.0364 for the second.

Compared with O=C(/C=N/O)NCCCN1CCOCC1, CN1CCN(C2=C(Cl)C(=O)N(c3ccc(Cl)c(Cl)c3)C2=O)CC1 is higher in z-score: -0.0436 for the first, -0.0299 for the second.

First: CC1CC(C)CN(C(=O)c2cc(-c3ccccn3)nc3ccccc23)C1 (stereo unspecified)
Second: O=C(Cn1nnc(-c2ccccc2F)n1)Nc1cccc2ncccc12
The z-score of the first is lower: -1.27 for the first, 2.27 for the second.

First: CN(C)S(=O)(=O)c1cccc(C(=O)NCc2cccs2)c1
Second: Cc1cccc(-n2cnc(C(=O)N/N=C\c3ccc(Br)cc3)c2)n1
The z-score of the first is lower: -0.326 for the first, -0.288 for the second.

First: O=c1ccn(CCOc2ccc(Cl)cc2)c(=O)[nH]1
Second: N=c1ccn(Cc2ccc(Cl)cc2)cc1
The z-score of the first is lower: 0.0702 for the first, 0.222 for the second.

Going from O=C(CSc1nnc(Cn2cnc3ccccc32)o1)Nc1cccc2ccccc12 to CCc1ccc(NC(=O)C(CC)Sc2nc3cc4c(cc3c(=O)n2Cc2ccco2)OCO4)cc1 (stereo unspecified), the z-score falls from 0.497 to -0.0882.

Compared with O=[N+]([O-])c1ccc(COc2cccc(CNc3ccc(Br)cc3)c2)cc1, C=CCn1c(SC(C)CC)nc(O)cc1=O (stereo unspecified) is lower in z-score: 0.133 for the first, -0.418 for the second.

Cc1cc(C)c2nc(NC(=O)c3cc(C)on3)sc2c1 was tested, and the z-score was active: 12.

Source: PubChem BioAssay AID488969 (Vanderbilt High Throughput Screening Facility, 2010)
